{"source": "ChEMBL document CHEMBL5308541", "about": "“MAIP: An Open-Source Tool to Enrich High-Throughput Screening Output and Identify Novel, Druglike Molecules with Antimalarial Activity” (ACS Med Chem Lett, 2023)", "note": "About 540 (0.36%) of roughly 150,000 compounds showed an effect of 50% or more. The list shows a part of the results."}
{"test_system": "Plasmodium falciparum", "experiment": "Primary screen in NF54 nanoGlo assay, in single point, at 2uM, 72h; a lower Z score goes with more inhibition", "type": "functional, Erythrocyte", "conditions": "timepoint 72 hour", "units": {"% Inhibition": "%"}}
{"smiles": "Cc1ccn(-c2ccccc2NC(=O)N2CCC[C@H](S(N)(=O)=O)C2)n1", "% Inhibition": 1, "Z score": -0.1}
{"smiles": "O=C(NC1CCCC1)c1ccc(N2CCC(N[C@@H](CCn3ccnc3)c3ccccc3)CC2)cc1", "% Inhibition": -2, "Z score": 0.31}
{"smiles": "CCS(=O)(=O)NCCCNc1ncc(F)c(NCC(F)F)n1", "% Inhibition": -6, "Z score": 0.88}
{"smiles": "c1cnc(O[C@H]2CC[C@H](Nc3ccc4nccnc4n3)CC2)cn1", "% Inhibition": -7, "Z score": 1.3}
{"smiles": "CNC1CCN(Cc2cccc(-c3nc(-c4cc(C)oc4C)cc(=O)[nH]3)c2)CC1", "% Inhibition": -6, "Z score": 1.16}
{"smiles": "Nc1nc2c(c(N3CCC(Oc4ccccc4F)CC3)n1)CCNCC2", "% Inhibition": 7, "Z score": -1.24}
{"smiles": "c1cc2c(N3CCC(COc4cc(C5CCC5)ncn4)CC3)ncnc2cn1", "% Inhibition": -18, "Z score": 2.76}
{"smiles": "CCNC(=O)N1CCC(NC(=O)c2cccc(-c3ccnc(N)n3)c2)CC1", "% Inhibition": -9, "Z score": 1.87}
{"smiles": "Cn1cc(CC(NC(=O)OC(C)(C)C)C(=O)N2CCC3(O)CCCCC3C2)c2ccccc21", "note": "(stereo unspecified)", "% Inhibition": -13, "Z score": 2.27}
{"smiles": "CCN1CCC[C@H](CN2CCCN(c3ncccn3)CC2)C1", "% Inhibition": -3, "Z score": 0.59}
{"smiles": "CCN1CCC[C@@H]1CNc1c(S(=O)(=O)c2cccc(F)c2)cnc2cc(F)ccc12", "% Inhibition": -8, "Z score": 1.38}
{"smiles": "O=C(NCC1CCNCC1)c1cccc(-c2cc(C(=O)NC3CC3)ccn2)c1", "% Inhibition": -10, "Z score": 1.74}
{"smiles": "O=S(=O)(Nc1nccs1)c1ccc(Nc2ccnc3ccc(C(F)(F)F)cc23)cc1", "% Inhibition": 5, "Z score": -0.78}
{"smiles": "Nc1nc(NC2CC2)cc(N2CCC(c3cc[nH]c(=O)c3)CC2)n1", "% Inhibition": -7, "Z score": 1.02}
{"smiles": "Cc1ocnc1CNc1ccc(C(F)(F)F)c(C#N)c1", "% Inhibition": -8, "Z score": 1.62}
{"smiles": "Cc1ccncc1CCCNC[C@H]1CCCN(Cc2cccnc2)C1", "% Inhibition": 11, "Z score": -1.69}
{"smiles": "CC(C)N1CCN(c2cc(N3CCN(C(C)C)CC3)ncn2)CC1", "% Inhibition": -4, "Z score": 0.62}
{"smiles": "O=C(NCCCN1CCC(O)CC1)N1CCN(Cc2cccc(O)c2)CC1", "% Inhibition": 2, "Z score": -0.35}
{"smiles": "CC(C)n1ncc2cc(CN3CCC(N4CCS(=O)(=O)CC4)CC3)cnc21", "% Inhibition": -5, "Z score": 0.91}
{"smiles": "Fc1ccc(CNC2CC2Nc2nc(C(F)(F)F)nc3ccccc23)cc1", "note": "(stereo unspecified)", "% Inhibition": 3, "Z score": -0.52}
{"smiles": "COc1ccc2nc(C(=O)Nc3cc(C)nc(C(C)C)n3)ccc2c1", "% Inhibition": -9, "Z score": 1.62}
{"smiles": "COc1ccc(-c2ccncc2)cc1CN1CCN(c2ccnc(C)n2)CC1", "% Inhibition": 4, "Z score": -0.84}
{"smiles": "O=S(=O)(NCCNc1cc(Nc2ccccn2)ncn1)c1ccccc1C(F)(F)F", "% Inhibition": -10, "Z score": 1.74}
